Assay results published in paper PMC8294944 (Journal of agricultural and food chemistry, 2020).

Experiments:
[1] = biological target: T1, ERβ (MDA-MB-231/β41 breast carcinoma cells) (Homo sapiens, UniProt Q92731); experiment: ERβ-ERE-luciferase induction assay in MDA-MB-231/β41 cells; type: cell-based
[2] = biological target: T1, ERβ (MDA-MB-231/β41 breast carcinoma cells); conditions: ERE-luciferase, MDA-MB-231/β41 cells; mean ± SEM; cited from earlier work
[3] = ERE-luciferase, MDA-MB-231/β41 cells, mean ± SEM

T1 sequence (Q92731 whole entry): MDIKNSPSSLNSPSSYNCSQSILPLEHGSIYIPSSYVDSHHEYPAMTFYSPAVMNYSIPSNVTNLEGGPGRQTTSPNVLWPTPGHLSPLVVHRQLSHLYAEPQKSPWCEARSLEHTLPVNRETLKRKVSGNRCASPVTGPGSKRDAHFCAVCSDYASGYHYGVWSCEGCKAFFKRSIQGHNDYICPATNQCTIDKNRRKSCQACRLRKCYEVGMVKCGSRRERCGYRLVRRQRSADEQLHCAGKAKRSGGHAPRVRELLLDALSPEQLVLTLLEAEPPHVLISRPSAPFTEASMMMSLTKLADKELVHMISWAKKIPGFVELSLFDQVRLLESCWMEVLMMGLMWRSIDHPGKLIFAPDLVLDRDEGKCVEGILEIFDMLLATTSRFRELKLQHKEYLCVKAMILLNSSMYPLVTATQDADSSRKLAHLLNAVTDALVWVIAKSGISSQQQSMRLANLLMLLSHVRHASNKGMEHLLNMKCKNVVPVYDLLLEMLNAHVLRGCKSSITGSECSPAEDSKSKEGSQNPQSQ

| Compound | EC50 [1] | ERβ Maximum efficacy [1, 3] | further results |
| --- | --- | --- | --- |
| CC(C)=CCc1c(O)cc(O)c2c(=O)c(-c3ccc(O)cc3)coc12 [8-PG, 8-Prenylgenistein] | 300 ± 3 nM |  | Emax ([1]; MDA-MB-231, read-out: ERβ Maximum efficacy): 74 ± 7% |
| CC(C)=CCc1c(O)cc(O)c2c1O[C@H](c1ccc(O)cc1)CC2=O [8-PN, 8-Prenylnaringenin] |  |  | ERβ Maximum efficacy [2]: 87 ± 9.0^4 |
| CC(C)=CCc1c(O)cc(O)c2c(=O)c(O)c(-c3ccc(O)cc3)oc12 [DMI, Desmethylicaritin] |  | 90 ± 11 |  |
| O=C1C[C@@H](c2ccc(O)cc2)Oc2cc(O)cc(O)c21 [NRG, naringenin] | 100 ± 40 nM | 99 ± 4.0 |  |
| Dehydrogenistein [DGN] |  | 114 ± 12 | EC50 ([1]; read-out: ERβ EC50 (compounds), ERE-luciferase, MDA-MB-231/β41 cells, mean ± SEM): 20 ± 10 nM |

Read-outs that look alike come from different tables or passages of the source.
